The other results are listed elsewhere or left out.
B1: chr7:75932113:75932114:+_ENSG00000106211_ENST00000248553|hu_hu|hu_hu_hu_mus_False|1_88 (ssRNA)
RNA: GGGAGUUCUACAGUCCGACGAUCCUGCGACCACUCAUCGGGCAACCGGGGCAGCCCGAAAGCUUGAUCGAAGAGGCGGCUGUGUGCAGGGUACCAGUCCCGGAAUGGUUCCCAGCUCGGGCUCCGCAGCAGCGAGAGGACGCGCAACAGAGGAUUGAGCAUCA
B2: chr11:43861564:43861565:+_ENSG00000149084_ENST00000278353|hu_hu|motif|central (ssRNA)
RNA: GGGAGUUCUACAGUCCGACGAUCCAGUUUUGUAGCUACGAAGUAUGGCAGGACACUCUGCACAAAGACGCCCUUGCUCCGGUACUCCUCAUGGAGGCACUGAGAGAAGAAAUCUACAAAAGUCUUGGUUGCAGAAUAGAUGGUCAACAGAGGAUUGAGCAUCA
B3: chr13:111190716:111190717:+_ENSMUSG00000021701_ENSMUST00000022212|mus_hu|FALSE|FALSE (ssRNA)
RNA: GGGAGUUCUACAGUCCGACGAUCCAGUUCCAAAGUCCUCUGGCUGAAAUGCUCUCAACAGAGAGAAUUUAAGAAUCAAUGCACCUUUCUGCAAAAUUGUCUGAAAAACCUUUUAAAACAGGUAUCUCAAGGAAAACUGCAUUCCAACAGAGGAUUGAGCAUCA
B4: chr1:163112212:163112213:-_ENSG00000143248_ENST00000313961|hu_hu|hu_hu_hu_mus_False|1_68 (ssRNA)
RNA: GGGAGUUCUACAGUCCGACGAUCUUUUAUUAUCAGUAAGAGUGAGUUACAUACUAGGCAAAGUAUUGAAUACAAAAAUCAGGAAACAAACACUAUUGGUCCAGAAUUUAAAACUUUAUGAGCGAAGUGCUGGCACAGGAUUUACAACAGAGGAUUGAGCAUCA
B5: chr1:85784824:85784825:-_ENSG00000153904_ENST00000284031|hu_mus|FALSE|FALSE (ssRNA)
RNA: GGGAGUUCUACAGUCCGACGAUCGGGGCAAUGAUUUUCCCUUUUAGAGGUAACGUUAUGUGAUGAGAACAUCGAAGGGGCAAUGCUGCGUGUAUUUUGCGUGUUCACAUCUCUGAAUCACACAGGGGGUCUGAAGAGCAGAGUCAACAGAGGAUUGAGCAUCA
B6: chr3:35992786:35992787:+_ENSMUSG00000027710_ENSMUST00000011492|mus_mus|motif|central (ssRNA)
RNA: GGGAGUUCUACAGUCCGACGAUCAAAAAUGGAGCAGAUACCGAAAGAAAGGUCAUCCAGAGAUGGGCCCAAUUUGCAAUCGGUCCGGUGUAAAGGCACCAAACACCAACACUAUUACUGCUGUGUUUGCAGAUAGGAGCCCAGCAACAGAGGAUUGAGCAUCA
B7: chr21:33032072:33032073:+_ENSG00000142168_ENST00000270142|hu_hu|FALSE|FALSE (ssRNA)
RNA: GGGAGUUCUACAGUCCGACGAUCUGCACUGGGCCGUCGCCCUUCAGCACGCACACGGCCUUCGUCGCCAUAACUCGCUAGGCCACGCCGAGGUCCUGGUUCCGAGGACUGCAACGGAAACCCCAGACGCUGCAGGAGACUACGCAACAGAGGAUUGAGCAUCA
B8: chr1:193054138:193054139:+_ENSG00000116747_ENST00000432079|hu_hu|FALSE|FALSE (ssRNA)
RNA: GGGAGUUCUACAGUCCGACGAUCUUACACUUUUUGCUCUUACCUCUUUUAGGUACACACGUAUUAUUCAACAAAGCAAAACUAUUUUACAGUGUCUGUUAACAAAAAGUUCUCUAUUAGAUAGAGGAAACUACAGUAUCCUGACAACAGAGGAUUGAGCAUCA
B9: chr17:55916980:55916981:-_ENSG00000181610_ENST00000313608|hu_mus|motif|central (ssRNA)
RNA: GGGAGUUCUACAGUCCGACGAUCCAAAGCUGGUGCUUUCAAACCACAGUACUGAGAUUCAUAACAUCCCGAAAACAGGGACGGAGAGAAGGCACACGUGCCUGAGAGAUGGAGGCCAUCAGAGUCCAUCAGCUUGGGCCAGCGCAACAGAGGAUUGAGCAUCA
B10: 112512530_112513563_1003_3pUTR_ENSG00000111300_ENST00000261745|human|control|control (ssRNA)
RNA: GGGAGUUCUACAGUCCGACGAUCAAUCGAAAUAAGUCAGAUAGAACUGCCAGUCAUCUGAGUUUUUUAGUAAGAGGCGCCGGGAAAGGGCAUUGCACUCUGGCCACCUGCUCAGCUUCUUGUACAUAGCCAUGCAUUUAUUUUCAACAGAGGAUUGAGCAUCA
B11: 36985904_36986024_3150_CDS_ENSG00000164190_ENST00000448238|human|control|control (ssRNA)
RNA: GGGAGUUCUACAGUCCGACGAUCAGUUGGUGAUUUAAAACCAAGUUUAUCAGAUCUUGAUUUAUUAGAAUCUCCUUGUUUAACACGAGGACUGUCAGGUCUUGAUUUUUGUUCCCCAGAAGAUGGUCUUUCCCUUGAGUCCCCCAACAGAGGAUUGAGCAUCA
B12: chr11:86533019:86533020:-_ENSMUSG00000047126_ENSMUST00000103186|perfect_dup|FALSE|FALSE (ssRNA)
RNA: GGGAGUUCUACAGUCCGACGAUCAAGAAGAUGGGUGUGAACCACUGCACGUUUUAUAUCAUAUAAAUCAGUGAAAUGUUCUAAUGCACGCUGCAGUAGGCCAGCCUUUUCACACAGUUGAGCAAUAUGAGCCCGGUCAUAAUGCAACAGAGGAUUGAGCAUCA
B13: chr1:213302989:213302990:+_ENSG00000136643_ENST00000366960|hu_mus|FALSE|FALSE (ssRNA)
RNA: GGGAGUUCUACAGUCCGACGAUCAGAAGCAACAGCCCCUACUGCCGAAGAAUCCGUAGACAGACUCAGACCAAAGGUUCUACUGGGAGAACCCUGACGGGAAGCCAUUCCAUCAUCUACCUCGGCAAGAGAGUCUGCAUCAACCAACAGAGGAUUGAGCAUCA
B14: chr7:149068622:149068623:-_ENSMUSG00000025139_ENSMUST00000001950|mus_hu|mus_mus_mus_hu_False|58_108 (ssRNA)
RNA: GGGAGUUCUACAGUCCGACGAUCGUGCAGGUACUGAGUGUGGCUUGUGGUCUGUCCUGGGUUAGAGUUGUUAAUAUCACUAAGUGGACCAUCUAGAACGUUCCAGUCCCGCCUGACACCUUCAUUCCCAAUGGAGAAGAAAUCCAACAGAGGAUUGAGCAUCA
B15: 187079632_187082414_1919_3pUTR_ENSMUSG00000039318_ENSMUST00000069652|mouse|control|control (ssRNA)
RNA: GGGAGUUCUACAGUCCGACGAUCACAAAACUGUAGCAGUCCUUCAUCAACAGACUCAAGCUCUUGGUUUUUUAAAGUGUCCAUUAAAGUCUGAGUAACAUUUCUAAGGCAGGAAAACGAUAAACGGUCACUGGCCAAAAUGCUCAACAGAGGAUUGAGCAUCA
B16: chr5:23655024:23655025:+_ENSMUSG00000028986_ENSMUST00000030841|mus_hu|motif|central (ssRNA)
RNA: GGGAGUUCUACAGUCCGACGAUCAUUAUAGCAGUCCAUUCGCUUUAUUGGGAAAAGCUGAGAGCCUCCCAAAAUGUAUACGGCAUUGUCCCAAAACACGCAUGCUGCAUCUCUUCGUUUUUCAAAGGGGCAGCGGAUGUCUGUCAACAGAGGAUUGAGCAUCA
B17: chrX:102632674:102632675:+_ENSG00000166681_ENST00000361298|hu_hu|FALSE|FALSE (ssRNA)
RNA: GGGAGUUCUACAGUCCGACGAUCGUGAUUAGAGAGCUCCCCCAUAAGGAUACGCAGACAAUUCCUCAACUGCAGCUCCCUAAGUUUUCUUCUGAUUUCUCUCAUCUCCUCCAUGAAUAUUUCCAUAUCAUCUCCAUCUCCACCCAACAGAGGAUUGAGCAUCA
B18: chr10:5788261:5788262:+_ENSG00000108021_ENST00000328090|hu_hu|FALSE|FALSE (ssRNA)
RNA: GGGAGUUCUACAGUCCGACGAUCGUAAGUCCUGGUGAAUGUGGCUUGAGUAACAGUGCCACUGUAAGAAGCCACUCUUGUGCUAUCCAGUGGCUGAACAAUUUCUUCUUCACUAGGAACAGAAGGUCCAUUAGUUUGUGUACUCAACAGAGGAUUGAGCAUCA
B19: 5094788_5094908_1562_3pUTR_ENSMUSG00000020393_ENSMUST00000020662|mouse|control|control (ssRNA)
RNA: GGGAGUUCUACAGUCCGACGAUCAGCAGCCAGGCUGGUACAUGUGAUGGAGGAUCCCAGGCUGGGCUGCCUCUAAAGCAGGGUGCUCCCAAAAGAGAUGGUGGUGAAUGGGAAGGCAGGGAACUCAUCAGAGGAGAACUCAGGCAACAGAGGAUUGAGCAUCA
B20: chr1:6239374:6239375:+_ENSMUSG00000025907_ENSMUST00000027040|mus_mus|motif|central (ssRNA)
RNA: GGGAGUUCUACAGUCCGACGAUCCUCCUGUGUGUGCCUGAUGUGCAGUGUGUCCUCUAAUUCCUUCAGGUGAUUUUGUUCGGAGCACUGAAAUUCAGCUCUCAAUGACUCGAUUUUUUCAUCAUGCAGCUUUUUCAGGUCUUCCAACAGAGGAUUGAGCAUCA
B21: chr8:9988343:9988344:+_ENSMUSG00000040396_ENSMUST00000048216|mus_mus|motif|central (ssRNA)
RNA: GGGAGUUCUACAGUCCGACGAUCUGUUUUUGUCAUGUCUUCGGGAGAAUGACUCUUGAUCACUUCCUUGAUAAAUUGUUCGGGUGCAGUGAAGUAGCCUUGGCACUGCCAUGUGUCGUUGUGCGUCCCAUCUGGGAAAAUGGCCAACAGAGGAUUGAGCAUCA
B22: 165204038_165204158_3870_3pUTR_ENSMUSG00000017667_ENSMUST00000103084|mouse|control|control (ssRNA)
RNA: GGGAGUUCUACAGUCCGACGAUCUUGUGUGUGUGCAUGUUAUAUCACACUUGUGGAAAUCAGGGUAGCGUGUAAGAAAAUCAGUUCUCUCUAUUACGUGAGACGGAAGGUCUGAACUCGGGUUGUCAGGCUUGCCAGCAAGCACAACAGAGGAUUGAGCAUCA

biological target: T1, UNK ZnF1-3 (human, UniProt Q9C0B0 31-174); assay: nsRBNS (natural sequence RNA bind-n-seq); RBNS binding buffer (assumed for nsRBNS): 25 mM Tris pH 7.5, 150 mM KCl, 3 mM MgCl2, 0.01% Triton X-100, 500 ug/ml BSA, 20 U/ml SUPERase-In, 4 C; UNK is unkempt and MSI1 is Musashi-1; names of the RNAs are library labels; protein concentration not given here; high values mean tight binding
T1 sequence: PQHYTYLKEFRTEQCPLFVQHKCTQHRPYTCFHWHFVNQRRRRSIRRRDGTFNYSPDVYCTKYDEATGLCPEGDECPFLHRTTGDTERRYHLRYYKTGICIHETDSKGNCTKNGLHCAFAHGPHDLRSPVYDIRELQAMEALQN

Point of comparison: B6, binding signal 1.02 enrichment R. Against it:
- B1 — higher, 1.05 enrichment R
- B2 — higher, 1.11 enrichment R
- B3 — higher, 1.08 enrichment R
- B4 — higher, 1.38 enrichment R
- B5 — lower, 0.839 enrichment R
- B7 — lower, 0.576 enrichment R
- B8 — lower, 0.427 enrichment R
- B9 — higher, 1.11 enrichment R
- B10 — lower, 0.992 enrichment R
- B11 — lower, 0.501 enrichment R
- B12 — higher, 1.24 enrichment R
- B13 — higher, 1.48 enrichment R
- B14 — higher, 1.05 enrichment R
- B15 — lower, 0.854 enrichment R
- B16 — lower, 0.552 enrichment R
- B17 — lower, 0.921 enrichment R
- B18 — lower, 0.686 enrichment R
- B19 — higher, 1.71 enrichment R
- B20 — lower, 0.566 enrichment R
- B21 — lower, 0.722 enrichment R
- B22 — higher, 1.19 enrichment R

— publication PMC12136788
